The whole screen tested about 220,000 compounds, of which about 5,700 (2.6%) were called active. The inconclusive results got no clear call from the source; some entries with a clear call stand among them for comparison. The call rests on the fitted dose curve; in most records, active means well fitted inhibition curve with a large enough effect; inconclusive means small, poorly fitted or top-dose-only effect; inactive means no such curve, though single readings can be large or run the other way. Potencies beside an inconclusive call are fits to weak or partial responses and may not hold up.
target: Lysine-specific demethylase 5B (Homo sapiens) (UniProt Q9UGL1); assay: Primary screen for KDM5B Histone Demethylases FDH-coupled qHTS; conditions: FDH-coupled NADH fluorescence (FDH is formaldehyde dehydrogenase); activity change, negative = inhibition: at 57.7 µM (top of the series) unless noted; further: nearly all actives have a fitted effect of over 70% in size; on activity change, negative = inhibition: 0% is about no effect
UniProt Q9UGL1, sequence (Q9UGL1 whole entry, looked up, the tested form may be a part): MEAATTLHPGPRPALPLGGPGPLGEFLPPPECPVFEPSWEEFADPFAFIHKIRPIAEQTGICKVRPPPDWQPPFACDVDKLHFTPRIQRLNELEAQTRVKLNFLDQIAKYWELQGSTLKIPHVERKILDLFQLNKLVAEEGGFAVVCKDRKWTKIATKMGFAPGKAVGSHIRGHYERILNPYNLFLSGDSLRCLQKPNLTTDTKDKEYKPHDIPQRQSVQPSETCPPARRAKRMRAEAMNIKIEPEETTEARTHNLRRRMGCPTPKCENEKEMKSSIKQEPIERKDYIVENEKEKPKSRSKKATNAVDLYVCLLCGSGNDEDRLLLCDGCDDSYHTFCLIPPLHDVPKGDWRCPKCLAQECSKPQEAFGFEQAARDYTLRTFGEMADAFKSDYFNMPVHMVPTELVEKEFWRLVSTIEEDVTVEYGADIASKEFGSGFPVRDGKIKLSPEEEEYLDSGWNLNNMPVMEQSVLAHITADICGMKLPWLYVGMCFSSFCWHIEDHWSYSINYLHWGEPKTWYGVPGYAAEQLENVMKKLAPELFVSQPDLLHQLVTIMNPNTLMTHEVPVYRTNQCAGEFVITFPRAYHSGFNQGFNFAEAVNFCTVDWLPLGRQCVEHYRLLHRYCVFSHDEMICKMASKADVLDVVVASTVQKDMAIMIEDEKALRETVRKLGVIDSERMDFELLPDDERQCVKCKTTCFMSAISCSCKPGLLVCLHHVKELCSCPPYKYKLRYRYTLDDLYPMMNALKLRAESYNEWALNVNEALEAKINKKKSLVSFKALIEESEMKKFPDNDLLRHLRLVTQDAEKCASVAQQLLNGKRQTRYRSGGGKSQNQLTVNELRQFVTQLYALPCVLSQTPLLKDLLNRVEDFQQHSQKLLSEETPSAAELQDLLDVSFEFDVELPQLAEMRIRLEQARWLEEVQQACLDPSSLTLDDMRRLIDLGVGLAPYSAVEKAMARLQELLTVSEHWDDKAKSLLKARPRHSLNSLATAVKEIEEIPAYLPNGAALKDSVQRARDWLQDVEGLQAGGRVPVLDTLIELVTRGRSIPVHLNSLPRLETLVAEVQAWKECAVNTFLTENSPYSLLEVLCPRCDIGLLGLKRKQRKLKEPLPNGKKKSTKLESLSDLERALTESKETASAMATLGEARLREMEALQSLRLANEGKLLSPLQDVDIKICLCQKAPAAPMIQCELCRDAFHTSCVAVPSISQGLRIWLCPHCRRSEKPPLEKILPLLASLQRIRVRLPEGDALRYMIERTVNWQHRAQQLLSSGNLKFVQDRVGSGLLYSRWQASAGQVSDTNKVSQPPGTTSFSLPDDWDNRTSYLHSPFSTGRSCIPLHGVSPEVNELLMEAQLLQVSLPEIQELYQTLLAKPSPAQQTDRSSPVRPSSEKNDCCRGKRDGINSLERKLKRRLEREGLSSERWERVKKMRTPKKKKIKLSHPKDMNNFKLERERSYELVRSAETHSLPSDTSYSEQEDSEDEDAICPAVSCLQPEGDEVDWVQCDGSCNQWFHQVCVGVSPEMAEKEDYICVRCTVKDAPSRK
Summary of the method: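 Inhibition is measured as reduced NADH fluorescence generation from FDH coupling to formaldehyde release. Truncated KDM5BΔAP at 200 nM final acts on H3K4me3 peptide (12.5 µM in substrate mix) in pH 7.5 HEPES buffer with Tween-20, 30 min, room temperature.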
Potency means the concentration at half of the fitted maximal effect; tags describe the fitted curve by direction and shape.

SMILES	Potency	activity change, negative = inhibition
COc1ccc2nc3oc(C(=O)NCc4ccccc4OC)cc3cc2c1	inconclusive: 6.31 µM [inhibitor, partial curve, poor fit]	–
CC/C(=N\O)c1cccs1	–	inactive: 9.08%
O=C(NC1CCCCC1)O[C@@H]1CO[C@H]2[C@@H]1OC[C@@H]2NC(=S)Nc1cccc2ccccc12	inconclusive: 28.2 µM [inhibitor, single point]	–
C[C@@H](NC(=O)N1CCC(n2cc(CO)nn2)CC1)c1ccc(F)cc1	–	inactive: 25.5%
O=C(c1ccccc1F)N1CCc2nc(-c3ccccc3)nc(-c3ccc(Cl)cc3)c2C1	–	inactive: -4.68%
Cc1cccc(S(=O)(=O)N2C[C@@H](F)C[C@H]2C(=O)N2CCc3ccccc3C2)c1	inconclusive: 14.1 µM [inhibitor, partial curve, poor fit]	–
C[C@@]1(O)CCN(C2CCN(c3ccc(F)cc3)CC2)C[C@@H]1O	inconclusive: 14.1 µM [inhibitor, partial curve]	–
COc1ccc(-c2nnc3ccc(NC(C)C)nn23)nc1	inconclusive: 35.5 µM [inhibitor, partial curve, poor fit]	–
COc1ccccc1-c1ccnc(-n2ncc(C(=O)NCCc3cccnc3)c2C2CC2)n1	active: 31.6 µM	–
Cc1ccc(-n2nc(CO)c(C(=O)NCc3cccs3)n2)cc1	inconclusive: 17.8 µM [inhibitor, partial curve, poor fit]	–
O=C(Nc1ccc(Cl)cc1)N1CCN(c2ccc3nnc(-c4ccc(F)cc4)n3n2)CC1	inconclusive: 25.1 µM [inhibitor, partial curve, poor fit]	–
O=C(COc1ccccc1)N[C@@H]1C[C@H](Cn2cc(-c3cccnc3)nn2)[C@@H](O)[C@H]1O	inconclusive: 22.4 µM [inhibitor, partial curve, poor fit]	–
CNC(=O)CCn1ncc2cc(OCc3ccccc3-c3cc(Cl)ccc3OC)ccc21	inconclusive: 44.7 µM [inhibitor, partial curve, poor fit]	–
CCC(NC(=O)CC1C=CCC1)C12CC3CC(CC(C3)C1)C2 (stereo not given)	–	inactive: 33.2%
CCc1cc(=O)oc2cc(OCC(=O)O)c(Cl)cc12	inconclusive: 25.1 µM [inhibitor, partial curve, poor fit]	–
COc1ccc(-c2ocnc2C(=O)Nc2c(C)cc(C)cc2C)cc1OC	–	inactive: -1.57%
Cc1nc2ccccc2c(C)c1CC(=O)N(C)C(C)c1cc2ccccc2o1 (stereo not given)	–	inactive: 3.37%
COc1ccc(-c2nc(C3CC3)nc3c2CCN(Cc2ccc(C#N)cc2)CC3)cc1	inconclusive: 56.2 µM [inhibitor, partial curve, poor fit]	–
Cc1oc2c(C)c3o/c(=N/O)c4c(c3cc2c1C)CCCC4	–	inactive: -18%
COc1ccccc1-c1ccc(/C=C2\C=CC(=O)O2)o1	inconclusive: 39.8 µM [inhibitor, partial curve, poor fit]	–
COc1ccc(CC(=O)NCCc2csc(-c3ccc(Cl)cc3)n2)cc1	inconclusive: 28.2 µM [inhibitor, partial curve, poor fit]	–
COC(CNc1nc(Nc2ccc(F)cc2)c2cnn(-c3ccccc3)c2n1)OC	inconclusive: 35.5 µM [inhibitor, partial curve, poor fit]	–

SMILES	Potency	activity change, negative = inhibition
Nc1nccnc1C(=O)NCc1ccc(OCc2cccc(F)c2)cc1	inconclusive: 28.2 µM [inhibitor, partial curve, poor fit]	–
CC(=O)NCCC(=O)N1Cc2ccccc2CC2(CCCN2CCc2ccc(C)cc2)C1 (stereo not given)	inconclusive: 44.7 µM [inhibitor, partial curve, poor fit]	–
O=C(Nc1cccnc1)[C@@H]1C[C@H](c2ccc(F)cc2)N(Cc2ccccc2Cl)C1	inconclusive: 31.6 µM [inhibitor, partial curve, poor fit]	–
COc1cc(C2CC(=O)Nc3c(-c4ccc(C)cc4)csc32)ccc1OCC(N)=O (stereo not given)	–	inactive: 14.5%
CCCc1cc(=O)oc2cc(OC(C)C(=O)NCc3cccnc3)ccc12 (stereo not given)	inconclusive: 25.1 µM [inhibitor, partial curve, poor fit]	–
O[C@@H]1C[C@@H](c2nc(Cc3ccccc3)no2)N(CCCc2ccccc2)C1	inconclusive: 35.5 µM [inhibitor, single point]	–
CCOC(=O)c1ccccc1NC(=O)Nc1cn(CC(C)C)c(=O)c2ccccc12	inconclusive: 28.2 µM [inhibitor, partial curve, poor fit]	–
Cc1nc(-c2ccccc2)sc1CCNS(=O)(=O)c1ccc(Br)cc1	inconclusive: 15.8 µM [inhibitor, partial curve, poor fit]	–
CSC1=C(C#N)C(=O)NC(c2ccccc2O)S1 (stereo not given)	inconclusive: 25.1 µM [inhibitor, partial curve, poor fit]	–
Cn1c(CN2CCOCC2)nnc1SCc1ccccc1Cl	inconclusive: 39.8 µM [inhibitor, single point]	–
CCN(CC)c1nn2c(=O)c(C(=O)NCc3ccc(F)cc3)cnc2s1	inconclusive: 28.2 µM [inhibitor, partial curve, poor fit]	–
Cc1ccc(N2CC(c3noc(-c4cccc(N(C)C)c4)n3)CC2=O)cc1 (stereo not given)	active: 35.5 µM	–
CCOC(=O)c1cc(NC(=O)c2ccc(F)cc2)c(=O)n2c1oc1ccccc12	inconclusive: 17.8 µM [inhibitor, partial curve, poor fit]	–
CCc1ccc(N2CC(c3noc(C4(c5ccc(OC)cc5)CC4)n3)CC2=O)cc1 (stereo not given)	–	inactive: -9.68%
CC(C)CC(=O)Nc1ccc2oc(-c3ccc(F)cc3)nc2c1	inconclusive: 28.2 µM [inhibitor, partial curve, poor fit]	–
CN1Cc2cccn2CC1CNC(=O)c1ccccc1 (stereo not given)	active: 28.2 µM	–
O=C(O)CSCC(=O)N1CCN2C(=O)c3cc(-c4ccc(Cl)cc4)ccc3NC(=O)[C@@H]2C1	inconclusive: 25.1 µM [inhibitor, single point]	–
N#Cc1ccccc1OCC(=O)OCc1ccc(C(N)=O)cc1	–	inactive: 12.6%
CN(C1CCCCC1)S(=O)(=O)c1ccc2c(c1)c(=O)c(C(=O)NCCc1ccccc1)cn2C	inconclusive: 28.2 µM [inhibitor, partial curve, poor fit]	–
O=C(N/N=C/c1cccnc1)c1sc2ccccc2c1Cl	inconclusive: 39.8 µM [inhibitor, single point]	–
Cc1ccn2c(Nc3ccc4c(c3)OCCO4)c(-c3ccc(Cl)s3)nc2c1	inconclusive: 4.47 µM [inhibitor, full curve, poor fit]	–
Cc1ccc2c(c1)cc(C(=O)Nc1ccc(F)cc1F)n2C	inconclusive: 28.2 µM [inhibitor, single point]	–

SMILES	Potency	activity change, negative = inhibition
Cc1ccc(NC(=O)CCc2ncc(-c3c(F)cccc3F)o2)cc1C	–	inactive: 10.8%
O=C1CC(c2ccccc2)N(C(=O)C2CC2)CCCN(C(=O)c2cc3ccccc3[nH]2)CCN1 (stereo not given)	inconclusive: 14.1 µM [inhibitor, partial curve, poor fit]	–
O=C(NCCc1ccc(Cl)cc1)c1ccc(CS(=O)Cc2cccc(Cl)c2)o1 (stereo not given)	–	inconclusive: -38.2% [inhibitor]
NCCCC(N)(C(=O)O)c1ccccc1 (stereo not given)	–	inactive: 10.9%
CCNC(=O)c1cnc2sc(N3CCCCCC3)nn2c1=O	inconclusive: 25.1 µM [inhibitor, partial curve, poor fit]	–
N#Cc1cccc(CN2CC(CNc3ccccc3)C3(C2)CN(c2ccccc2)C3)c1 (stereo not given)	inconclusive: 20 µM [inhibitor, partial curve]	–
COc1ccc(S(=O)(=O)Nc2ccc(CCc3nc4ccc(C)cc4[nH]3)cc2)cc1	–	inactive: 7.88%
Cn1c(=O)c2c(nc(SCC(=O)N3CCOCC3)n2Cc2ccc(Cl)cc2Cl)n(C)c1=O	–	inactive: 1.39%
Cc1cccc(OCC2(CNCC3CCCC3)C[C@@H](O)[C@@H](O)C2)n1 (stereo not given in full)	inconclusive: 31.6 µM [inhibitor, partial curve]	–
CC(Sc1ncnc2nc[nH]c12)C(=O)NCc1ccc(Cl)cc1 (stereo not given)	–	inactive: -3.04%
COc1cc(C(=O)Oc2c(Sc3ccc(C)cc3)c(C)nn2-c2ccccc2)cc(OC)c1OC	inconclusive: 0.891 µM [inhibitor, full curve, poor fit]	–
CCc1ccc(NC(=O)c2cc(=O)c3cc(CC)ccc3o2)cc1	–	inactive: 11.8%
COc1cc(OC)cc(C(=O)N2CCC(Cc3nc(-c4ccc(F)cc4)no3)CC2)c1	–	inactive: 15.9%
c1cc(-c2noc([C@@H]3Cc4nc[nH]c4CN3CC3CCCCC3)n2)ccn1	active: 35.5 µM	–
N#Cc1nc(-c2ccc(S(=O)(=O)N3CCCCC3)cc2)oc1NCc1ccco1	–	inactive: -77.1%
O=c1[nH]c(C2CCCN(Cc3ccccc3)C2)nn1-c1ccccc1 (stereo not given)	inconclusive: 31.6 µM [inhibitor, partial curve, poor fit]	–
CN1CCN(c2oc(/C=C/c3ccccc3)nc2C#N)CC1	inconclusive: 28.2 µM [inhibitor, partial curve, poor fit]	–
Cc1ccc2c(n1)N(C)[C@H](CO)CCN(C1CCN(C)CC1)C2	inconclusive: 31.6 µM [inhibitor, single point]	–
COCc1cnc2c(c1SCc1cc(OC)cc(OC)c1)c(=O)n(C)c(=O)n2C	–	inactive: -2.95%
CC(C)CN1CC[C@H](c2nc3c(C(N)=O)cccc3[nH]2)C1	inconclusive: 35.5 µM [inhibitor, partial curve, poor fit]	–
O=C(O)[C@]12CCCN[C@@H]1CCN(Cc1ccc(-c3ccccn3)cc1)C2	inconclusive: 31.6 µM [inhibitor, partial curve, poor fit]	–
